# Laboratory results from the supplement of paper PMC8728848.
# The other results are listed elsewhere or left out.
# B1: Clec49 (Caenorhabditis elegans) (protein)
# chain: MTRLTLLLFGLLGAATAQTCNTGGIYNEQFNRCYQYFTAPAQFSFAEQQCNLLGGHLASVQNGQENALLQSNAANSFKRSNYSDYWIGATDLETSGTWKWTDPSVTFDYSNWQLGEPQSGSDCAIQDKGDGTWSAIGCTSYRPYVCVTPVIMTATCPPITTPIPTTCPTPAPCPIKQCVPSCDQGWTYFSPTDFCYRVYHGEKFNDAEASCVLLGGHLASIHSLTENTFVNNIASCGIKEGKYEHLAWIGMRKVGQDWVWTDGTPSDYFNWAPKQPDNPKKELCVQTAPDLSHDKWYENWNNLECNEVMRAYICKKASIHN
# Key:
# Assay in all cases: glycan array binding signal (z-score within array); higher = stronger binding
# Settings in all cases: glycan notation: IUPAC condensed, linker removed
# [1] = target: Fuc(a1-2)Gal(b1-4)GlcNAc(b1-3)Gal(b1-4)GlcNAc(b1-3)Gal(b1-4)GlcNAc
# Procedure, shortened: (§1)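 The Consortium for Functional Glycomics database supplied 3228 glycan arrays, of which those lacking an available protein sequence were dropped. The binding signal, a within-array Z-score, was averaged across arrays of the same protein sequence and across linkers. Negative scores can be read as non-binding.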
# [2] = target: Fuc(a1-2)Gal(b1-4)GlcNAc(b1-3)GalNAc
# Procedure, shortened: as §1
# [3] = target: Fuc(a1-2)Gal(b1-4)GlcNAc(b1-3)[Fuc(a1-2)Gal(b1-4)GlcNAc(b1-6)]GalNAc
# Procedure, shortened: as §1
# [4] = target: Fuc(a1-2)Gal(b1-4)GlcNAc(b1-3)[Fuc(a1-3)[Gal(b1-4)]GlcNAc(b1-6)]Gal(b1-4)Glc
# Procedure, shortened: as §1
# [5] = target: Fuc(a1-2)Gal(b1-4)GlcNAc(b1-6)GalNAc
# Procedure, shortened: as §1
# [6] = target: Fuc(a1-2)Gal(b1-4)GlcNAc6S
# Procedure, shortened: as §1
# [7] = target: Fuc(a1-2)Gal(b1-4)[Fuc(a1-3)]GlcNAc
# Procedure, shortened: as §1
# [8] = target: Fuc(a1-2)Gal(b1-4)[Fuc(a1-3)]GlcNAc(b1-2)Man(a1-3)[Fuc(a1-2)Gal(b1-4)[Fuc(a1-3)]GlcNAc(b1-2)Man(a1-6)]Man(b1-4)GlcNAc(b1-4)[Fuc(a1-6)]GlcNAc
# Procedure, shortened: as §1
# [9] = target: Fuc(a1-2)Gal(b1-4)[Fuc(a1-3)]GlcNAc(b1-2)[Fuc(a1-2)Gal(b1-4)[Fuc(a1-3)]GlcNAc(b1-4)]Man(a1-3)[Fuc(a1-2)Gal(b1-4)[Fuc(a1-3)]GlcNAc(b1-2)Man(a1-6)]Man(b1-4)GlcNAc(b1-4)GlcNAc
# Procedure, shortened: as §1
# [10] = target: Fuc(a1-2)Gal(b1-4)[Fuc(a1-3)]GlcNAc(b1-3)Gal(b1-4)[Fuc(a1-3)]GlcNAc
# Procedure, shortened: as §1
# [11] = target: Fuc(a1-2)Gal(b1-4)[Fuc(a1-3)]GlcNAc(b1-3)Gal(b1-4)[Fuc(a1-3)]GlcNAc(b1-3)Gal(b1-4)[Fuc(a1-3)]GlcNAc
# Procedure, shortened: as §1
# [12] = target: Fuc(a1-2)Gal(b1-4)[Fuc(a1-3)]GlcNAc(b1-3)GalNAc
# Procedure, shortened: as §1
# [13] = target: Fuc(a1-2)Gal(b1-4)[Fuc(a1-3)]GlcNAc(b1-3)[Neu5Ac(a2-6)Gal(b1-4)GlcNAc(b1-6)]Gal(b1-4)Glc
# Procedure, shortened: as §1
# [14] = target: Fuc(a1-2)Gal3S(b1-4)GlcNAc
# Procedure, shortened: as §1
# [15] = target: Fuc(a1-2)Gal6S(b1-3)GlcNAc
# Procedure, shortened: as §1
# [16] = target: Fuc(a1-2)Gal6S(b1-3)GlcNAc6S
# Procedure, shortened: as §1
# Fuc(a1-2)Gal6S(b1-4)Glc = target: Fuc(a1-2)Gal6S(b1-4)Glc
# Procedure, shortened: as §1
# [17] = target: Fuc(a1-2)Gal6S(b1-4)Glc6S
# Procedure, shortened: as §1
# Fuc(a1-2)[Gal(a1-3)]Gal = target: Fuc(a1-2)[Gal(a1-3)]Gal
# Procedure, shortened: as §1
# [18] = target: Fuc(a1-2)[Gal(a1-3)]Gal(b1-3)GalNAc
# Procedure, shortened: as §1
# [19] = target: Fuc(a1-2)[Gal(a1-3)]Gal(b1-3)GalNAc(b1-3)Gal(a1-4)Gal(b1-4)Glc
# Procedure, shortened: as §1
# [20] = target: Fuc(a1-2)[Gal(a1-3)]Gal(b1-3)GlcNAc
# Procedure, shortened: as §1
# [21] = target: Fuc(a1-2)[Gal(a1-3)]Gal(b1-3)GlcNAc(b1-2)Man(a1-3)[Fuc(a1-2)[Gal(a1-3)]Gal(b1-3)GlcNAc(b1-2)Man(a1-6)]Man(b1-4)GlcNAc(b1-4)GlcNAc
# Procedure, shortened: as §1
# [22] = target: Fuc(a1-2)[Gal(a1-3)]Gal(b1-3)GlcNAc(b1-2)Man(a1-3)[Fuc(a1-2)[Gal(a1-3)]Gal(b1-3)GlcNAc(b1-2)Man(a1-6)]Man(b1-4)GlcNAc(b1-4)[Fuc(a1-6)]GlcNAc
# Procedure, shortened: as §1
# [23] = target: Fuc(a1-2)[Gal(a1-3)]Gal(b1-3)GlcNAc(b1-3)GalNAc
# Procedure, shortened: as §1
# [24] = target: Fuc(a1-2)[Gal(a1-3)]Gal(b1-3)GlcNAc(b1-6)GalNAc
# Procedure, shortened: as §1
# [25] = target: Fuc(a1-2)[Gal(a1-3)]Gal(b1-4)Glc
# Procedure, shortened: as §1
# [26] = target: Fuc(a1-2)[Gal(a1-3)]Gal(b1-4)GlcNAc
# Procedure, shortened: as §1
# [27] = target: Fuc(a1-2)[Gal(a1-3)]Gal(b1-4)GlcNAc(b1-2)Man
# Procedure, shortened: as §1
# [28] = target: Fuc(a1-2)[Gal(a1-3)]Gal(b1-4)GlcNAc(b1-2)Man(a1-3)[Fuc(a1-2)[Gal(a1-3)]Gal(b1-4)GlcNAc(b1-2)Man(a1-6)]Man(b1-4)GlcNAc(b1-4)GlcNAc
# Procedure, shortened: as §1
binder,measurement,setting,value
B1,glycan array binding signal (z-score),[1],-0.191
same,glycan array binding signal (z-score),[2],-0.223
same,glycan array binding signal (z-score),[3],0.84
same,glycan array binding signal (z-score),[4],-0.313
same,glycan array binding signal (z-score),[5],-0.314
same,glycan array binding signal (z-score),[6],-0.737
same,glycan array binding signal (z-score),[7],-0.005
same,glycan array binding signal (z-score),[8],0.368
same,glycan array binding signal (z-score),[9],6.67
same,glycan array binding signal (z-score),[10],-0.045
same,glycan array binding signal (z-score),[11],-0.819
same,glycan array binding signal (z-score),[12],-0.242
same,glycan array binding signal (z-score),[13],-0.336
same,glycan array binding signal (z-score),[14],0.166
same,glycan array binding signal (z-score),[15],-0.543
same,glycan array binding signal (z-score),[16],1.29
same,glycan array binding signal (z-score),Fuc(a1-2)Gal6S(b1-4)Glc,-0.677
same,glycan array binding signal (z-score),[17],-0.875
same,glycan array binding signal (z-score),Fuc(a1-2)[Gal(a1-3)]Gal,-0.102
same,glycan array binding signal (z-score),[18],-0.431
same,glycan array binding signal (z-score),[19],0.061
same,glycan array binding signal (z-score),[20],-0.288
same,glycan array binding signal (z-score),[21],2.31
same,glycan array binding signal (z-score),[22],0.255
same,glycan array binding signal (z-score),[23],0.411
same,glycan array binding signal (z-score),[24],-0.167
same,glycan array binding signal (z-score),[25],0.094
same,glycan array binding signal (z-score),[26],0.248
same,glycan array binding signal (z-score),[27],-0.467
same,glycan array binding signal (z-score),[28],-0.065
